The list shows a part of the results.

The test system of this test is PfHDP1 homeodomain (GST-tagged). Kind of test: gcPBM binding intensity (ln(normalized median fluorescence intensity)); higher = stronger DNA binding. Summed up:
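An Agilent 4 × 180k array of primer-extended double-stranded 36-bp intergenic genomic probes, with negative controls, was incubated for 1 h with GST-tagged P. falciparum DNA-binding domains expressed in E. coli. Alexa488 anti-GST antibody detected bound protein, scanned at 488 nm. Binding intensity is the highest Masliner-normalised natural-log median intensity across replicate spots of either probe orientation.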
Turning to “TGCAGTCTGGAGAAGAGTACATAGTATCTGGTAGCT [XGTACX_site2021]”, the “gcPBM binding intensity (ln)” value was determined as 6.26.
For the sequence “TATTAATAAATTTATAAAACAGGTATATATATATAT [CACACA_negctrl_site615]”, the “gcPBM binding intensity (ln)” value turned out to be 9.24.
As for “CAAAGGGAAATTAACACACACATATTTATATTTATA [CACACA_site7202]”, the “gcPBM binding intensity (ln)” value was found to be 6.48.
“ATGTATATGATTAAATGTACGTAAACAAATTTGTAA [XGTACX_site8174]”: the “gcPBM binding intensity (ln)” value worked out at 6.92.
Next, “ACCACATAAAACAAATGTACTTGAAATATATGCGTA [XGTACX_site5155]”: 6.24.
Consider “AAAAATTATGGACACACACACATATATATATATATT [CACACA_site4717]”, for which the “gcPBM binding intensity (ln)” value was 6.81.
The value for “GGTATACGCAAGTATACACACATATATATATATATA [CACACA_site3240]” was 9.32.
The value for “AATAAAATAAAATACACACATACATACATACAAATG [CACACA_site2438]” was 6.99.
Next, “TAATTTATGACACGCGCACACATATATATATAGTAA [CACACA_site4249]”: 6.96.
On to “TGAGTTACATACTAATGTACACAACAAAAAAAAAAA [XGTACX_site2390]”, for which the “gcPBM binding intensity (ln)” value stood at 6.13.
Next, “AAAGGTTTATATGATACACACATAAGTGATCAGGTT [CACACA_site190]”: 6.36; “TTTTTTTGAACATATACACACTCTAAACTTATACAT [CACACA_site3917]”: 6.7; “AAAAACTAATCTTTAACATGCAACCGTTTATACATA [TGCATGCA_site363]”: 6.58.
“TTTTGCAATAATGTTGCACACTAAATAGTCATCTAT [CACACA_site4304]”: the “gcPBM binding intensity (ln)” value is 9.09.
The value for “ATTTCATAAATTAAACGTACATAATACACACACATG [XGTACX_site4155]” was 7.08; that for “GTACGATAAAAAATTGGACAAAAAAAAAAAAAAAAT [XGTACX_negctrl_site158]” was 6.28; that for “TAAAACAACAAAGAAAATGAAAAAGTAAAAACATAT [CACACA_negctrl_site1049]” was 6.82.
For “AAAAAAAAAAAAGGAGGTACACAATTTTATATATGC [XGTACX_site5296]”, the “gcPBM binding intensity (ln)” value turned out to be 6.37.
With “ACAAGTCAGGCAAAAACATGCATTATTTGAACATTA [TGCATGCA_site864]”, the “gcPBM binding intensity (ln)” value is 6.42.
The value for “ACATTTTTTTCATATCGTACATATTATAATATTTTC [XGTACX_site6524]” was 7.09.
Regarding “GAGCATTACCCATATACACACATATATATAAACCTA [CACACA_site2737]”, the “gcPBM binding intensity (ln)” value worked out at 7.1.
With “TTTCCTTATTAAAACACACAAATACATTATTTAATC [CACACA_site7080]”, the “gcPBM binding intensity (ln)” value came out at 6.38.
Next, “ACCCATAAAAAGGATACACACACACCCACCCATATA [CACACA_site8205]”: 7.17; “ATATATATATTTGTATGTACATATATATATTCGTAT [XGTACX_site1640]”: 8.17.
Regarding “ACTGTAAAAGGATTTACACACATATTTACATTTACA [CACACA_site519]”, the “gcPBM binding intensity (ln)” value was 6.73.
Next, “ATGCATATAACTACGTGTACAAATATACACAAATAC [XGTACX_site8811]”: 7.05; TACCAATGCATAACGGTGCAAAAAAATAAGGAATAA: 10.3; “ATAATTATTTTAGAAACACACAAATTAGAAAAAACA [CACACA_site3636]”: 6.98.
With “AATCCTTACGGACACACACACACGAATAAATAAAAA [CACACA_site4422]”, the “gcPBM binding intensity (ln)” value is 6.68.
Turning to “GAGTATTCAAGTATTAGTACATATTATATAATAAAT [XGTACX_site7630]”, the “gcPBM binding intensity (ln)” value turned out to be 6.64.
“TAAAATAAAAATTAAAGTACATATGTATATATATAT [XGTACX_site3984]”: the “gcPBM binding intensity (ln)” value stood at 8.79.
The value for “TACAAAATGGGGAACACACACATATATAAATAAATA [CACACA_site7751]” was 6.9.
Consider “CTATCATATTTATGCACACAAAAATAATTAATTCGT [CACACA_site2614]”, for which the “gcPBM binding intensity (ln)” value was determined as 9.43.
Next, “ACCTGTTCATATGATCGTACACGTCAGTTTATATGA [XGTACX_site3869]”: 6.81; “TATTTTGAGAATAAATGTACGAATTTTATATTTAAA [XGTACX_site1336]”: 5.89.
The value for “ACATTAAAATATGATTGTACATTTTATTATATTATA [XGTACX_site912]” was 6.4; that for “ACAACACTATATTACACATGCATTAAGAGAGTGAAC [TGCATGCA_site124]” was 6.85; that for “ATTCAAATATTAAAAAGTACAAAAAAAAAACAAAAA [XGTACX_site1174]” was 6.66.
The value for “ATATAATTATTGATATGTACATATTTGTTCTAGTTT [XGTACX_site3012]” was 6.95; that for “TTTTTATAAAAATTATTAAAAAAATTATTTATAGCT [CACACA_negctrl_site265]” was 5.75.
With “TAGCGCATAAAAAAAAAAAAATATATACTAATAAAT [GTGCAC_negctrl_site276]”, the “gcPBM binding intensity (ln)” value was 6.22.
Consider “AAATATATTATTATCTTATCAATTAAAAGAATAAAC [CACACA_negctrl_site779]”, for which the “gcPBM binding intensity (ln)” value was determined as 6.32.
On to “TTTTTTTTCAATCTCTATATATTAAGGTTTATATTT [XGTACX_negctrl_site397]”, for which the “gcPBM binding intensity (ln)” value is 6.4.
The value for “TTACTTAAATATAAGTGTCCTCAAAAAAAAAAAAAA [XGTACX_site460]” was 6.17; that for “ATGTATGTTTTTTTTTTATTGTTCAAAAAGTTGAAG [CACACA_negctrl_site1276]” was 6.69; that for “ATTTTTTATATTAATTGTACATTGTATATATATATA [XGTACX_site8702]” was 8.85.
The value for “AATATAAGTTTATTAGTGCACAGATAAATATATATT [GTGCAC_site9784]” was 9.52; that for “TTTTTTTCTAATTATGCACACATATCAAAATATTCA [CACACA_site8886]” was 10.2.
The value for “ATATTTATTATATAATGTACAAAAAAAAAAAAAAAA [XGTACX_site629]” was 6.29.
“CGTGTGTCCCCCTTAATCATCCAATCGTTCATTTTG [CACACA_negctrl_site1008]”: the “gcPBM binding intensity (ln)” value stood at 6.31.
As for “TATATAATGGTAAAAACACACAAATATGAAGATGTT [CACACA_site722]”, the “gcPBM binding intensity (ln)” value came out at 6.31.
Regarding “CATATTCCCCCCCACACACACACACCCATACATACC [CACACA_site2303]”, the “gcPBM binding intensity (ln)” value is 9.35.
The value for “AATAAATAGATATATACACACATATATCTATAATAT [CACACA_site6557]” was 6.33; that for “AAATATAAAAGTATATGTACATATATATATATATAT [XGTACX_site7446]” was 9.51.
Turning to “GACAATAAAAAGAAAAGTACATATATAAATTAACCA [XGTACX_site7858]”, the “gcPBM binding intensity (ln)” value came to 6.51.
With “TCTTCATTTTTATGTGCATGTAAAATTTTTTTTTTT [TGCATGCA_site963]”, the “gcPBM binding intensity (ln)” value worked out at 10.
The value for “AGAGGATCATAGTTATGTACACATATTTAACATAAA [XGTACX_site7232]” was 6.27; that for “ATAACATCAGTATTATGTACATATGTAGGTAAATAA [XGTACX_site7066]” was 6.89; that for “CGTTATTATACACATACACACAGGAATAAAAAATTA [CACACA_site7373]” was 7.11.
Take “TTTTATTGTTTTTTTTTTTTTTCTTTTTTTTTTTTT [CACACA_negctrl_site1094]”: the “gcPBM binding intensity (ln)” value stood at 5.99.
The value for “TTTTATCAAATATTTATTTTATACATAAATATTTAT [XGTACX_negctrl_site528]” was 6.3; that for “ATTTTGTGTAGTGATGCATGTTATATATATATTTGA [TGCATGCA_site422]” was 7.25; that for “AGAAACATATGGTAGTGTACTGTAAATTTATTCTTT [XGTACX_site8602]” was 6.56.
Next, “ACTATTATTAAAAATTGTACTTTCTATAAATTTTTT [XGTACX_site7825]”: 6.47; “TTCTGACTTGTTATAATTTGTATATCCGAAAAAATT [TGCATGCA_negctrl_site456]”: 6.27; “TACATATTTTGTATATATTATTTATTTTATTAGTTT [XGTACX_negctrl_site85]”: 6.21.
“CATACTGTTATAAAATGTACGCATATACACACACAT [XGTACX_site7256]”: the “gcPBM binding intensity (ln)” value worked out at 7.1.
With “GATCTATACATGGGGACACACATCACTCTATATTTT [CACACA_site3408]”, the “gcPBM binding intensity (ln)” value worked out at 6.7.
Consider “ATTTGTTATATATTCTTTTATGTTAATAATTCGAAT [CACACA_negctrl_site378]”, for which the “gcPBM binding intensity (ln)” value came to 6.37.
As to “AAAAAATACAAACACACACACACACCCATATATATA [CACACA_site3560]”, the “gcPBM binding intensity (ln)” value was 7.01.
In the case of “TATGAATAAAAAAGAAGTACAAATTATATGAACGCA [XGTACX_site3018]”, the “gcPBM binding intensity (ln)” value came out at 6.93.
CTTTTTATTTAGGAGGTGCATGTAATACGGAACATA: the “gcPBM binding intensity (ln)” value turned out to be 8.26.
With “TTTTGTTTAATATTCACACATATATATTTTTTATTT [CACACA_site5496]”, the “gcPBM binding intensity (ln)” value came to 6.8.
Next, “GGTAATTTCCTTTTTTGTACTCATAGAAGGATAATA [XGTACX_site89]”: 6.4; “TTTCTTCTTCTATTGTGTACGTAAAAAAAAAAAAAA [XGTACX_site772]”: 6.55; “TTTGAAATATTAAATGCATGTTAAAACATAAAAATG [TGCATGCA_site680]”: 6.59.
Next, “ATTATATTAAAATACACACCCAAATATTAAAAAGAT [CACACA_site5613]”: 7.39; “TGATAAAATGGGGAAATTCATTATATCATATCTTGG [CACACA_negctrl_site789]”: 6.36.
The value for “TTGGATAAAAAATATGTACACACATATAGATATCTA [CACACA_site8862]” was 6.31.
On to “AAGAAAAAAATTTAATTAAATGAAATTTTTGAATTA [TGCATGCA_negctrl_site25]”, for which the “gcPBM binding intensity (ln)” value turned out to be 5.97.
The value for “AAGACTGCACTTTAAGCACACAAATATATTTTTTTT [CACACA_site8337]” was 8.04; that for “AAATTAATATATAAAAGTACCCATATATTTAATATA [XGTACX_site3551]” was 6.09.
The value for TTTTTTTTTTGTTGAGTGCAATTATTTGTAAGAAAA was 8.7; that for “TCAAAGCACCCATACACACACATATATATATATATA [CACACA_site4317]” was 9.46.
The value for GTACGTTACATAAATGTGCACATATTATATGCGAAG was 10.7; that for “GTCATATATATATGTACACACATATATATATTTATA [CACACA_site1459]” was 6.45.
Turning to “AGTTTGTTTTTTTTTTTTTTTTCCTGTCACAAACAA [CACACA_negctrl_site1093]”, the “gcPBM binding intensity (ln)” value was 6.48.
Regarding “TATAACAAAATATTCACACATATAAGTAAATAAAGG [CACACA_site5777]”, the “gcPBM binding intensity (ln)” value came out at 6.57.

Values taken from the supplement of paper PMC11417369.
